Results from the supplement of paper PMC11417369.
± gives the standard deviation of the averaged measurements. Some of the results follow.

Test system: PfAP2-LT AP2 domain (GST-tagged)
Assay: gcPBM binding intensity (ln(normalized median fluorescence intensity)); higher = stronger DNA binding
How it was run: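 Binding intensity is the highest Masliner-normalised natural-log median intensity over replicate spots in either probe orientation. To obtain it, GST-tagged P. falciparum DNA-binding domains made in E. coli were incubated for 1 h on an Agilent 4 × 180k array of primer-extended double-stranded 36-bp intergenic genomic probes plus negative controls. Detection used Alexa488 anti-GST antibody with scanning at 488 nm.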

Sequence	gcPBM binding intensity (ln)
ATAATTAGTTCAATTTTTTTTTTTTTTTTTTTTTTT [CACACA_negctrl_site1371]	8.66 ± 0.18
AAAAATATAATATATGCACACATACATACATATATA [CACACA_site7915]	8.97 ± 0.39
TAAAAATTAAAACTGGGTACAAATTTATAGATAGCC [XGTACX_site8075]	8.86 ± 0.52
AATTTATTAGATAGATGTACATTTTAATAAAAGTAG [XGTACX_site6819]	8.51 ± 0.45
CATTAACAAATAAATGCACACATATATATAAATAAT [CACACA_site7892]	9.04 ± 0.35
TCCCCTTAATTTAAAACACACAAACAAATAAGTTAG [CACACA_site5973]	8.73 ± 0.39
AATATTTTTTTTTAAACATGCATATTTGCATTACCC [TGCATGCA_site437]	8.73 ± 0.49
TTTACATTTATGTGCACACATTCCATTTGAAAGTAA [CACACA_site1953]	8.9 ± 0.35
CTTATAAAAAAAATTGCACACATATTATACAGGACG [CACACA_site8133]	9.04 ± 0.38
ATAAATTTTTTATGAACACACAAATACACCCACTCA [CACACA_site5465]	9.31 ± 0.27
ATAACTTTCTATACATGTACACATATATGGTATTTT [XGTACX_site7535]	9.14 ± 0.38
TGTATATATTTTAATAGTACTCATATATATATATAT [XGTACX_site7216]	9.07 ± 0.11
ATTGTGTTGACGGGTGACCCTTCCAGAGAAATAGAA [CACACA_negctrl_site1362]	8.63 ± 0.51
TTTTTTTTAATGAGAAGTACGGTCTTTCAATGTCTT [XGTACX_site6773]	8.49 ± 0.35
ATATAAATAAATATATGTACACACACAAATATATAC [XGTACX_site3950]	9.42 ± 0.23
TCTTTCTTATTTTAATGATATTTATTCATTCCAGTT [CACACA_negctrl_site1679]	8.91 ± 0.57
AGAATTATTCTAAAAACACACAATACAAAAGTGCAT [CACACA_site3004]	8.89 ± 0.46
ACTTTTACACTTTGATTGCACTACTAAACCAGTTCA	8.96 ± 0.52
AATACTAAAACCCATACACACACATATATATAGTAC [CACACA_site9041]	9.68 ± 0.3
ATAAAAAAAAATATTTGTACACATATTTATATATTA [XGTACX_site8147]	8.54 ± 0.47
ATATGTTTTTTTTTTTTTTTTTAATTTGTCATAAAT [CACACA_negctrl_site1208]	8.57 ± 0.45
TCTTTCAATATTAATGCATGTTAATAATAAATTTTA [TGCATGCA_site448]	8.2 ± 0.35
TGAACAATATATAATAGTACATATTTATTTTTTTCT [XGTACX_site4256]	8.57 ± 0.48

Sequence	gcPBM binding intensity (ln)
TAAAGATGAAATATCACACATATATAAATATATAAA [CACACA_site4580]	8.75 ± 0.41
CAATGTTAACATATTACACACATATGTATTTATAAT [CACACA_site5512]	9.04 ± 0.3
GCATATATTATATATTTATTTATTTTTTTTTTTTAA [GTGCAC_negctrl_site193]	8.41 ± 0.51
ATATATATGAATACATGTACGTATTTGTCTATGTAT [XGTACX_site8306]	9.09 ± 0.45
AAAATATTTATATTTACACACACATAATACATATAT [CACACA_site32]	9.35 ± 0.35
GTGTACAGTTTTTGCACACATATAAATAAAAAAAAG [CACACA_site3599]	9.28 ± 0.28
TAAATTACATGAAATTGTACATGAATATTAAATATA [XGTACX_site3909]	8.4 ± 0.53
TTCGTTATAATTGAATTTACAATATGCTTTATAATG [XGTACX_negctrl_site238]	8.61 ± 0.38
ATATATACAAAGGATTAACACACATATTATTATATA [CACACA_site8563]	8.88 ± 0.52
ATGTTACTCAGACACACACACATAAAAAAACAAAAA [CACACA_site3249]	9.63 ± 0.38
TGTGTTAATATATGAAGTACACAATACACACTAATT [XGTACX_site5469]	9.11 ± 0.25
AAATAAAATTATAATACATGCATACATACATATATA [TGCATGCA_site69]	8.64 ± 0.43
TATAAATACATACGTACACACAAATATTAAAATATA [CACACA_site5129]	9.06 ± 0.41
TCATATGTTAAATGATGTACATTTAATATAAATAAA [XGTACX_site900]	8.5 ± 0.42
AAAAAAAACATCCTCACACATATATATATATATATA [CACACA_site5166]	9.885 ± 0.021
TAATATCATTTATGGGGTACCTCCTATTCTTATTTA [XGTACX_site1839]	8.8 ± 0.55
CGAACTGCACTTTTTAGTACTTAATAATTATTTTTT [XGTACX_site2446]	8.73 ± 0.51
ATTAATATGAATAAAACACACATATATAATTTGTAA [CACACA_site1929]	8.87 ± 0.41
AAAAAAAAAAAGAAATGTACATGAATATTTTAAATG [XGTACX_site4069]	8.57 ± 0.64
TGCAGTCTGGAGAAGAGTACACAGTATCTGGTAACA [XGTACX_site2037]	8.78 ± 0.47
TATATATTCATATGTTGTACATAAATACAAATAAGA [XGTACX_site5602]	8.69 ± 0.44
AAAGGTAAATGTAAATAAATAAATAATAAATATATA [GTGCAC_negctrl_site681]	8.72 ± 0.53
AACAGAATAATACTAAATGAACGATTTCTCTTTATG [GTGCAC_negctrl_site376]	8.6 ± 0.51

Sequence	gcPBM binding intensity (ln)
TATACATGTTATGTACATCTAATCACACGTGCAATA [CACACA_negctrl_site1267]	8.96 ± 0.4
TCTTTTTACACCTCTTACATAAAACAAAATAAGGGG [XGTACX_negctrl_site12]	8.85 ± 0.37
TTGTAAATTTACATTTGTACATAAATATATTAATAT [XGTACX_site3969]	8.6 ± 0.49
TGTATGTTTGGGTGCACACATAAATATTATATATAG [CACACA_site3397]	9.01 ± 0.47
ATATATATAAAACACACACACACATGGTTTAAAACT [CACACA_site4219]	9.72 ± 0.18
CATGCTACATCTTATTGTACTTATCTAATGTTAGTA [XGTACX_site1863]	8.93 ± 0.34
AGGCAATATTATATATATATATATATATATATATAT [CACACA_negctrl_site826]	9.82 ± 0.25
GTATGATGCATAAGAGTGCATAAGGATATTTCTTCA	8.84 ± 0.5
AATTTAAAAAATAACAGTACATAAAATATATACATA [XGTACX_site7917]	8.61 ± 0.42
AAAAATAAAAGGTGTGCACACAAAAATATATATATA [CACACA_site8507]	9.66 ± 0.45
TATTGTTATTAAAAATGTACATATAAATTTCTTATT [XGTACX_site1409]	8.43 ± 0.49
TGGCATTAAAATTTAGTGCATATATCTTAGCATGGG	8.66 ± 0.35
TGTGTATATTATATGTGTACATATCAATGTTTATAT [XGTACX_site1885]	9.12 ± 0.4
TAATATTAAATAAATAAAATATATAATATATATATA [XGTACX_negctrl_site49]	8.44 ± 0.4
TAATATATAACGTGCACACACACATCTACGTATGAA [CACACA_site5080]	9.52 ± 0.33
AGTTTTATATTTCTGAGTACTTATGAATCTAGCTCG [XGTACX_site4330]	8.72 ± 0.45
TTTTTTTTTTTTTTTACACACATTTTAATAATTTTA [CACACA_site1492]	8.74 ± 0.43
ATTTTTTCTAAAAGTTGTACATTAAAACGTGTTCAC [XGTACX_site4803]	8.57 ± 0.46
TTGTAAAAAATTCATACACACGTCTTATTTTTAAGA [CACACA_site8390]	8.62 ± 0.41
TATTTATTCTCCAACACACACACATATATATATATA [CACACA_site2894]	9.66 ± 0.2
TTATAGGTGCTTCGTAGTACATAAAAATAATATATA [XGTACX_site6979]	8.54 ± 0.43
AAAATGAATTTAAAATGTACTTTTTCTAAAGAGTAA [XGTACX_site2337]	8.21 ± 0.52
AAGACTCTTTGTCCTTGTACATATATTTTTATGTTT [XGTACX_site3711]	8.94 ± 0.45

Sequence	gcPBM binding intensity (ln)
TTTATATAATATGAATGTACTTATATATTTATAGAC [XGTACX_site3261]	8.49 ± 0.42
TATTTATACACGCACACACACTTATACATTTATATA [CACACA_site7543]	9.64 ± 0.31
TTTCTTTTTTAGAGGTGTACACGTAGGCCTCTTGGA [XGTACX_site4760]	8.44 ± 0.5
CACACTTTTTAAATTAACGCATTTCAAAAAAAATAT [CACACA_negctrl_site84]	8.41 ± 0.46
TTAGATATTAATATATGTACATATTAATATATTTAC [XGTACX_site7119]	8.68 ± 0.39
TATAATTTTTACTGGGTGCACTCGATATTTTAAATA	8.59 ± 0.49
TAAATGTAAAACGAAATGCACACTATGGAAAATATA [CACACA_site724]	9.09 ± 0.39
ATTATTTTATATACATGTACATATTATATATAAAAG [XGTACX_site2735]	8.51 ± 0.42
TATAAAATAAAAAATATATATATGTATATATATATA [TGCATGCA_negctrl_site163]	8.9 ± 0.37
TATAAGTGCTCAACGGTGCATTTATAGAAGTTAAAC	8.83 ± 0.41
TCTTCCATTTTTATTACACACATAAATATGAAATCG [CACACA_site3471]	8.82 ± 0.36
ACATTTTTGGTTTTAGTGCAATATGAATTATTTTAT	8.69 ± 0.33
CCTTTAAGCAAAAACACACACACATATATATATATA [CACACA_site348]	9.945 ± 0.035
ATTATTATTTTACGTAGTACATATAATAAATATTTA [XGTACX_site8934]	8.42 ± 0.55
GGAATATTATTTCAATGTACATTTTGAGATTAGAAT [XGTACX_site8187]	8.62 ± 0.38
TATCCATATTTGTTCACACACACACGGATTTATATA [CACACA_site7649]	9.59 ± 0.26
TTATTTCTAATTCGTTGTACAATATATAATATATAT [XGTACX_site5861]	8.64 ± 0.49
TAGGTGTTAAAAAATACACACACAAAAAAAAAAAAA [CACACA_site7927]	9.22 ± 0.61
TTGATAGACACATGCACACATGCAATACTTTATTCA [CACACA_site3000]	9.06 ± 0.39
ATATAAAGTATGTTAGTGCACTTTTTTTTTTTTTTT [GTGCAC_site9419]	8.77 ± 0.44
